Here are results for three compounds from PubChem BioAssay (Tox21).

For some assays here: Most of the hits are listed elsewhere, so they are rarer here than in the full data. Records with an inconclusive call do not appear. This is a selection; strong and weak results do not stand in their true shares. The source made the active and inactive calls. Calls come from the whole dose curve; as a rule, active = well fitted curve in the direction sought with a large enough effect in the repeat runs; inconclusive = weak or mixed curves; inactive = no such curve, though single readings can be large; an effect the other way counts as inactive or inconclusive.

Assay [1] can be described thus: qHTS assay for identifying genotoxic compounds that show differential cytotoxicity against isogenic chicken DT40 cell lines with known DNA damage response pathways - wild type cell line (AID 743012). Note: nearly all actives have a fitted effect of over 60% in size. Note: potency is the fitted concentration of half-maximal effect. A digest of the protocol: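 Quantitative HTS on parental DT40 cells: 40 h compound treatment at 37 C/5% CO2, with viability then determined by CellTiter-Glo luminescence. Values serve as the DNA repair-proficient reference for differential cytotoxicity.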
For orientation: Quantitative high-throughput screening tests each substance at several concentrations.

The nature of assay [2]: qHTS assay for identifying genotoxic compounds that show differential cytotoxicity against isogenic chicken DT40 cell lines with known DNA damage response pathways - Rad54/Ku70 mutant cell line (AID 743015). Note: nearly all actives have a fitted effect of over 60% in size. Note: potency is the fitted concentration of half-maximal effect.
Assay [3] addresses Nuclear receptor subfamily 1 group I member 2 (Homo sapiens) (UniProt O75469). Nature of the assay: CYP3A4 induction through human pregnane X receptor (PXR) by small molecules, qHTS assay (AID 1346984). Note: % is set by controls: 0 for no effect and ±100 for the full control effect; nearly all actives have a fitted effect of over 40% in size. Conditions: DPX-2 HepG2 PXR, CYP3A4-luciferin luminescence, 24 h; at 46.1 µM (top of the series). From the text:
National Center for Advancing Translational Sciences [NCATS]
NIH Chemical Genomics Center [NCGC]
U.S. Environmental Protection Agency [EPA]
National Institutes of Environmental Health Sciences [NIEHS]
National Toxicology Program [NTP]
The Pregnane X receptor (PXR), a ligand activated nuclear receptor plays a critical role in the regulation of genes involved in drug metabolism and transporters. Activation of PXR is responsible for unwanted adverse drug reactions. PXR binds xenobiotics and when compounds interact with PXR enhances the expression of CYP3A genes. Identifying the compounds with the potential for PXR activation and CYP3A4 induction can be of importance in improving the efficacy of drugs with less toxicity and avoiding drug-drug interactions.
DPX-2 (Puracyp, Inc.) cell lines, used for screening against human PXR activation has HepG2 cells co-transfected with a PXR response element and a luciferase construct containing CYP3A4 promoter. […]
DPX-2 cells were dispensed at 2,000 cells per well in 5uL of assay medium into white, solid-bottom 1536-well plates using a Multidrop Combi dispenser (Thermo Scientific). […] Then 5ul One-Glo assay reagent (Promega) was added to each plate by an FRD and following 30 min incubation at room temperature, luciferase activity was quantified on a ViewLux plate reader (Perkin Elmer).

Assay [4] is described as follows: qHTS assay for identifying genotoxic compounds that show differential cytotoxicity against isogenic chicken DT40 cell lines with known DNA damage response pathways - Rev3 mutant cell line (AID 743014). Note: potency is the fitted concentration of half-maximal effect; nearly all actives have a fitted effect of over 55% in size. The note with it: chicken DT40 Rev3-/- viability, CellTiter-Glo, 40 h.
Assay [5] concerns the target Cytochrome P450 2C19 (Homo sapiens) (UniProt P33261). In words: Cytochrome P450 Family 2 Subfamily C Member 19 (CYP2C19) small molecule antagonists: luciferase reporter qHTS assay (AID 1671197). For activity change, negative = inhibition: % is set by controls: 0 for no effect and ±100 for the full control effect. Note: nearly all actives have a fitted effect of over 65% in size. Note: potency is the fitted concentration of half-maximal effect. In a few lines: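 Light output is proportional to CYP2C19 activity: proluciferin substrate is converted to luciferin, then detected by a luciferin detection reagent that also stops the 1 h, 37C NADPH-driven reaction. Ketoconazole serves as positive control.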
For orientation: Reporter assays use an easily measured gene product as a stand-in for the process of interest.

Assay [6] has as its target Cytochrome P450 2C9 (Homo sapiens) (UniProt P11712). Nature of the assay: Cytochrome P450 Family 2 Subfamily C Member 9 (CYP2C9) small molecule antagonists: luciferase reporter qHTS assay (AID 1671198). Note: potency is the fitted concentration of half-maximal effect; nearly all actives have a fitted effect of over 50% in size. Conditions: P450-Glo CYP2C9 enzyme assay, luciferin luminescence. A digest of the protocol: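 CYP2C9 activity was measured with a P450-Glo proluciferin substrate. Enzyme–substrate mix was held with compound for 10 min at room temperature, then NADPH regeneration solution was added for 1 h at 37C. Luciferin product was read as luminescence.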

Assay [7] deals with Cytochrome P450 1A2 (Homo sapiens) (UniProt P05177). Nature of the assay: Cytochrome P450 Family 1 Subfamily A Member 2 (CYP1A2) small molecule antagonists: luciferase reporter qHTS assay (AID 1671199). For activity change, negative = inhibition: % is set by controls: 0 for no effect and ±100 for the full control effect. Note: nearly all actives have a fitted effect of over 50% in size. Note: potency is the fitted concentration of half-maximal effect. A digest of the protocol:
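Signal from luciferin formed by CYP1A2 from a proluciferin substrate is read as luminescence, expressed in relative luminescence units. Compounds sit with enzyme 10 min, NADPH-driven reaction runs 1 h, all at room temperature.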

In assay [8] the target is Voltage-gated inwardly rectifying potassium channel KCNH2 (Homo sapiens) (UniProt Q12809). In words: Human Ether-a-go-go-Related Gene (hERG) channel small molecule antagonists: fluorescence cell-based qHTS assay (AID 1671200).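 Note: hERG-expressing U2OS cells given a thallium stimulus after FluxOR II dye loading; % is set by controls: 0 for no effect and ±100 for the full control effect; nearly all actives have a fitted effect of over 50% in size.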 Conditions: hERG-U2OS cells, FluxOR thallium flux fluorescence; at 76.8 µM (top of the series) unless noted. A digest of the protocol: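 Thallium served as the potassium surrogate; its influx into dye-loaded U2OS cells carrying the channel was measured by fluorescence over 2 min.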

Assay [9] concerns the target Cytochrome P450 3A4 (Homo sapiens) (UniProt P08684). In words: Cytochrome P450 Family 3 Subfamily A Member 4 (CYP3A4) small molecule antagonists: luciferase reporter qHTS assay (AID 1671201). Note: potency is the fitted concentration of half-maximal effect; nearly all actives have a fitted effect of over 50% in size. Conditions: P450-Glo CYP3A4 enzyme, luciferin luminescence, 1 h. In a few lines: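 Relative luminescence units after 20 min with luciferin detection reagent served as read-out. Beforehand, CYP3A4 turned over a proluciferin substrate for 1 h at room temperature with NADPH regeneration, following 10 min compound preincubation.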
Sequence of UniProt P08684 (P08684 whole entry, looked up): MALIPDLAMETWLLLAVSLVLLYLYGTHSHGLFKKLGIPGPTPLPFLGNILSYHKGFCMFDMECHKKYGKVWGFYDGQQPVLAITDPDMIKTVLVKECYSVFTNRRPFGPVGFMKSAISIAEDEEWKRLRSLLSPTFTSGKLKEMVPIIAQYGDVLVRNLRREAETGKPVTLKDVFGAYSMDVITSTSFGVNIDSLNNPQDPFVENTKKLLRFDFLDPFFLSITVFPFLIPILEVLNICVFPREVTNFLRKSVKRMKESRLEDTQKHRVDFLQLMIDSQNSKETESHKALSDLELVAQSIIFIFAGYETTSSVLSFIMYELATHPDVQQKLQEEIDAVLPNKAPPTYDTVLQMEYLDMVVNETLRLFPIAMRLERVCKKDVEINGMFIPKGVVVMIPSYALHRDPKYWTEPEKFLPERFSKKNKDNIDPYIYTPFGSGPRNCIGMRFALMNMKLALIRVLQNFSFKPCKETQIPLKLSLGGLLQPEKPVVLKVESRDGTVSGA

Sequence of UniProt P05177 (P05177 whole entry, looked up): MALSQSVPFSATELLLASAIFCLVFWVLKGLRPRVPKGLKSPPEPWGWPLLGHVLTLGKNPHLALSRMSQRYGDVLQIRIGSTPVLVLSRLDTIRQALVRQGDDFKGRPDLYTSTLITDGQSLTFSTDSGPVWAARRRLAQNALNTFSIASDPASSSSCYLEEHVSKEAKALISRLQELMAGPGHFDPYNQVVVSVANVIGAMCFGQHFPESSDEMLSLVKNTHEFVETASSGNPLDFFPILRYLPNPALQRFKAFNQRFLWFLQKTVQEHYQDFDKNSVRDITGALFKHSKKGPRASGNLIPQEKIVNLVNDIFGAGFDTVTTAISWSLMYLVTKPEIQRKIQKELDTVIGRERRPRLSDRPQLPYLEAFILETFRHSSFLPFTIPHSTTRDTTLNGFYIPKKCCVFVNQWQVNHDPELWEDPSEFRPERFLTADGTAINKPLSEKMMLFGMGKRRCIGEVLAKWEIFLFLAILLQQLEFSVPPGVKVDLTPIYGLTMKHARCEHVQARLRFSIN
Sequence of UniProt Q12809 (Q12809 whole entry, looked up): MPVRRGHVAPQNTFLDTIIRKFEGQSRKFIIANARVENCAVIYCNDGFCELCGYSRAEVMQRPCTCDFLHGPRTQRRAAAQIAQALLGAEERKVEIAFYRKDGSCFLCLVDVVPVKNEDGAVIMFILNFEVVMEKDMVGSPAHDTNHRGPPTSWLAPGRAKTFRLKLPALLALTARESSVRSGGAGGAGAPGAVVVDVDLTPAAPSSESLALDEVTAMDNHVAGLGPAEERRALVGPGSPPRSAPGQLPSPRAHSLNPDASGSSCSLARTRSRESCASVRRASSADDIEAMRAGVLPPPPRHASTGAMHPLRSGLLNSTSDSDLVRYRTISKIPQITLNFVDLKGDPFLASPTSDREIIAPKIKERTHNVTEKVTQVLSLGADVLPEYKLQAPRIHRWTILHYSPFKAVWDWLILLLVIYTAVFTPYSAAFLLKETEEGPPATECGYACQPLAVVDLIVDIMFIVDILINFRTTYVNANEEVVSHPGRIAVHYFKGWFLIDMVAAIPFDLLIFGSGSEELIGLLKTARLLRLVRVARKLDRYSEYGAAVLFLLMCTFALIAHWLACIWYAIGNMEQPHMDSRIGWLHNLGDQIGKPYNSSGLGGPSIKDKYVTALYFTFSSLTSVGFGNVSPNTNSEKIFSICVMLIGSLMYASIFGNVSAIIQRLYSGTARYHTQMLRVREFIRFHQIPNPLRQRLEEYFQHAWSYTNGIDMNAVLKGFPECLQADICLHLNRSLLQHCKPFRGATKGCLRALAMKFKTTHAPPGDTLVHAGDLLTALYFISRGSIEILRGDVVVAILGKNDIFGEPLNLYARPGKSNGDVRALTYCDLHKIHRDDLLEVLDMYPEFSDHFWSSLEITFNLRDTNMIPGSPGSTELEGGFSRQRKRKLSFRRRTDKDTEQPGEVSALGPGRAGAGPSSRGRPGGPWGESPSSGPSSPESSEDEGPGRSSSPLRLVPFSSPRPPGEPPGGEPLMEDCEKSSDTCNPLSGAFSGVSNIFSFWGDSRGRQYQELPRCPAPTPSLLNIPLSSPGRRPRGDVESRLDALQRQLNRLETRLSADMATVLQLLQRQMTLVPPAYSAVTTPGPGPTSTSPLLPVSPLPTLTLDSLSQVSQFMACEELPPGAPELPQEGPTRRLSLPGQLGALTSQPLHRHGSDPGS
Sequence of UniProt P11712 (P11712 whole entry, looked up): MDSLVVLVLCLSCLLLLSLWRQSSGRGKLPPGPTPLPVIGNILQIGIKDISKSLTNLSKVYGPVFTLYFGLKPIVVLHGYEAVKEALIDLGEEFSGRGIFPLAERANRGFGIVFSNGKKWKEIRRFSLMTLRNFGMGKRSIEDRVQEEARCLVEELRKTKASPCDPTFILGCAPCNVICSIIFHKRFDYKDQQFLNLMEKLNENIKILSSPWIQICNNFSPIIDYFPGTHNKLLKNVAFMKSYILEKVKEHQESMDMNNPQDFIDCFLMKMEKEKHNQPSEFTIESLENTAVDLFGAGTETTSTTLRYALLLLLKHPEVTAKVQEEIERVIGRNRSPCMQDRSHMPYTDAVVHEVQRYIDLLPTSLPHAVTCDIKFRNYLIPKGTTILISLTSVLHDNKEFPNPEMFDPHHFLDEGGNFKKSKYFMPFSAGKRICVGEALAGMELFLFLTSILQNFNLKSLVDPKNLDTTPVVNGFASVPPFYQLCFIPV
Sequence of UniProt P33261 (P33261 whole entry, looked up): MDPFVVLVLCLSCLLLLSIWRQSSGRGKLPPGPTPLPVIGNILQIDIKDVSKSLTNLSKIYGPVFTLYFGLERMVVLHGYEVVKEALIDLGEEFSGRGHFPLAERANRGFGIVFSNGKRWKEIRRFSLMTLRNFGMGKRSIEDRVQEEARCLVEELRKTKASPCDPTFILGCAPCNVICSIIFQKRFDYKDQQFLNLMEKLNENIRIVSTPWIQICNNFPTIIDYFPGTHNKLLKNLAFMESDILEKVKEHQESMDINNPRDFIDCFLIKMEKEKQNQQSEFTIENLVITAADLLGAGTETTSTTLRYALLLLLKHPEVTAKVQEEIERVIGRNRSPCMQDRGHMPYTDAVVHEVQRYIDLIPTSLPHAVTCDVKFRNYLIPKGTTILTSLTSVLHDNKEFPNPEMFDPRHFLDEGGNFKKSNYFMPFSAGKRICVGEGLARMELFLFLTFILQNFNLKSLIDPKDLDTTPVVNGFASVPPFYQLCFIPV

Take `CN1c2ccccc2C(NCCCCCCC(=O)O)c2ccc(Cl)cc2S1(=O)=O` (configuration not stated): the Potency result in assay [1] and in assay [2] was “inactive” throughout. Also, in assay [3], the activation was inactive: 1.58%.

`Nc1ccccc1C(=O)OC/C=C/c1ccccc1`: the Potency in [1] is active: 48.7 µM; in [4], active: 27.4 µM; in assay [2], active: 43.4 µM; in assay [5] it was active: 3.57 µM; in assay [6] it was active: 20.1 µM; in assay [7] it was active: 10.1 µM. Also, the Potency in [9] was active: 63.4 µM. Further, the activity change, negative = inhibition in [8] was inactive: -21.4%.

In the case of `CC(=O)[C@H]1CC[C@H]2[C@@H]3CC[C@H]4C[C@H](O)CC[C@]4(C)[C@H]3C(=O)C[C@]12C`, the Potency in assay [1] is active: 23.7 µM; in [6], active: 9.77 µM. Further, the activation in assay [3] was inactive: -4.68%. Also, the Potency entry in assay [5] and in assay [7] was “inactive” each time. Further, the activity change, negative = inhibition in assay [8] was inactive: 10.7% [at 35.3 µM].
